This is one part of the list.
B1: chr3:148522152:148522153:-_ENSMUSG00000028184_ENSMUST00000106128|mus_hu|FALSE|FALSE (ssRNA)
RNA: GGGAGUUCUACAGUCCGACGAUCUGGUGAGGUAUCAUGGUAGUUGGCAUAGUUAAUUAUGGCCUCGCCACUCUUAAUUCUAGUCCUCAAGUCAAAUUUCACAAUAUUCCUCGUUCUUUCUUUGUUAAAGAAGACAGCACCAUCCAACAGAGGAUUGAGCAUCA
B2: chr14:48151594:48151595:+_ENSMUSG00000037536_ENSMUST00000168833|mus_mus|motif|central (ssRNA)
RNA: GGGAGUUCUACAGUCCGACGAUCAUUGAAGUUUUUUUAAAAAAUUUUUAACCAGACAAAAGGAUGCACAACAUUUUAAUCGGUUAUAUGAUAUUGUCUUAUUCUGUGGUGAUUAUGUUUAGUCAGCUGUUCAUAAUAUACAAUCAACAGAGGAUUGAGCAUCA
B3: chr4:115894766:115894767:+_ENSMUSG00000028698_ENSMUST00000030464|mus_hu|mus_mus_mus_hu_True|68_88 (ssRNA)
RNA: GGGAGUUCUACAGUCCGACGAUCUUCCACACGGAAAUGUACUUCGGGUUUCCAACGGGCCAGUACCGUCCAGCCAAAACUACCCGAACAGGGUCCUCCCCCUCUCUCCUACAGAACACAACAAAAUGCCCCCGAACUUUCAAGCAACAGAGGAUUGAGCAUCA
B4: chr19:60835742:60835743:+_ENSMUSG00000072437_ENSMUST00000088237|mus_hu|FALSE|FALSE (ssRNA)
RNA: GGGAGUUCUACAGUCCGACGAUCUCCAAAAAGGACUUUGUAGGAAAAUUAAAAUACAAAGAAAAAUAAAAGCCACUAGAAAUUUUAAGUCUGUACAGAAAAGAACAGGUUAAGACAAUCUGUACCUCUACAGUUGGAGAAGCCCAACAGAGGAUUGAGCAUCA
B5: 90283538_90296387_2345_CDS_ENSG00000196730_ENST00000408954|human|control|control (ssRNA)
RNA: GGGAGUUCUACAGUCCGACGAUCGAGCUUAAUUCUUGGCUGCAGGUUCUGUGUGGGUCGGAGCUGCUGGAUGAAGAGUCCUCGGUGCGUAUCCUUUCGAAGUCUUGCAAGGAGACCUGCUACGUGCUCGUGCUGUUCCGAUCUCAACAGAGGAUUGAGCAUCA
B6: chr15:31439531:31439532:-_ENSMUSG00000039100_ENSMUST00000090227|mus_hu|motif|central (ssRNA)
RNA: GGGAGUUCUACAGUCCGACGAUCAAAUCUGUGCUUGCAUAAUUCACAGUAUUCUUUUCGACUGUGUUUCAGCCAUUGAACGGAGCAUUCUUGAUGGAUAAACUUAAUACUGCCAGUACAUACACAAGGAUGAUAAAGCGGUUUCAACAGAGGAUUGAGCAUCA
B7: chr15:44267162:44267163:+_ENSMUSG00000022338_ENSMUST00000060652|mus_hu|FALSE|FALSE (ssRNA)
RNA: GGGAGUUCUACAGUCCGACGAUCCUGAGCAAGGAAUGUUCUUAUUCUUUGUAGGAGCUCCUUCUUUACACUGUCAGGUACCAGGGCUCUGCCUUUUGGAGUGAUUUCAGCCACCAAGUCAUCAACAGUAACGUGUUCUAGUCCCAACAGAGGAUUGAGCAUCA
B8: chr2:49628351:49628352:+_ENSMUSG00000026764_ENSMUST00000028102|mus_mus|FALSE|FALSE (ssRNA)
RNA: GGGAGUUCUACAGUCCGACGAUCCAAAGGACCCCUCCAUCAGACUCCAAUAGCAGCCAACAGUGGCAACAACAUGAAACAAAGUGAACACAGGUAAACACAAAAUCAUCUUUGUAAAAUAAAUACUUCAAUAGAAGUUGUCUUCAACAGAGGAUUGAGCAUCA
B9: chr1:39463905:39463906:+_ENSG00000174574_ENST00000432648|hu_hu|FALSE|FALSE (ssRNA)
RNA: GGGAGUUCUACAGUCCGACGAUCUGAGGAGUGAGGUUGACUUUCCGAAGCACAAGCUUCACUCUGAUUAAGAACAACUUCUAAAUGUCUCCACCUCUGAUAACGACUAUAUUCUUGUUUUAUGUUCUGAAAAAUUUGCUCCGGCAACAGAGGAUUGAGCAUCA
B10: chr8:26941818:26941819:-_ENSMUSG00000031575_ENSMUST00000166078|mus_mus|motif|central (ssRNA)
RNA: GGGAGUUCUACAGUCCGACGAUCACUAGCAGACACAGCACUGCUUUGUUUCUGGUUGUCAUAAGCAGGACCAAUAUUACGGAGAUCCUGAUCCAAAAGUCCAAACUUGGGGUAAUCUUCUUCUGGGUCUUUGCUUCCUGGGUCCAACAGAGGAUUGAGCAUCA
B11: chr2:26507767:26507768:+_ENSG00000138029_ENST00000317799|hu_mus|motif|central (ssRNA)
RNA: GGGAGUUCUACAGUCCGACGAUCCUUGGUUUUCCUACCCAUGUAGUUUUGUGCAAACCAAUCAGAAUCCAUGGCUUUAAAGUUAGCGGAAAUCUGGCCUGAGAAGGCUUCAUGAAAUUCAAAAGCAUCGAUAUCAUUCAUGGUCAACAGAGGAUUGAGCAUCA
B12: 53190818_53190938_964_3pUTR_ENSG00000177200_ENST00000398510|human|control|control (ssRNA)
RNA: GGGAGUUCUACAGUCCGACGAUCGUGAAAAGGAAUUACUUCCAGUAAAAUCAGAUAAAGUCUGAUUUGUAUGAUUAGAUGCAAGAACUGCAGAGGACUGAAGUAGACUGUUUGGUGAUAUAUGAUUACUGGAAAAGGAAUAAUCAACAGAGGAUUGAGCAUCA
B13: chr8:117878989:117878990:-_ENSG00000164754_ENST00000297338|hu_hu|hu_hu_hu_mus_True|28_68 (ssRNA)
RNA: GGGAGUUCUACAGUCCGACGAUCCCAGAGGCCCUCGUUUACUGAGGACAAAAUGUGCGUAGAACAUUGUUCUGGCUUGCUAUGAAAUAAGAAGAAACCUGGAUCUCCCGCUGGGAGCGGGAGGGGUGGGUGGCCCGGGGAGGGCAACAGAGGAUUGAGCAUCA
B14: chr1:25669491:25669492:+_ENSG00000183726_ENST00000374358|perfect_dup|motif|central (ssRNA)
RNA: GGGAGUUCUACAGUCCGACGAUCACAGGUAUGGUAUGAAUGGUUGAAUUGAUCCAUCCUGGGGUACAUGACAGCCGCGUCGGUGAUGAUCCACCAUCCCGUGAAAAAUAGAACGCCAGCAGCGAUGGAGGCGAUCGUGUUCCGCAACAGAGGAUUGAGCAUCA

biological target: T1, UNK ZnF1-3 (human, UniProt Q9C0B0 31-174); assay: nsRBNS (natural sequence RNA bind-n-seq); RBNS binding buffer (assumed for nsRBNS): 25 mM Tris pH 7.5, 150 mM KCl, 3 mM MgCl2, 0.01% Triton X-100, 500 ug/ml BSA, 20 U/ml SUPERase-In, 4 C; UNK is unkempt and MSI1 is Musashi-1; names of the RNAs are library labels; protein concentration not given here; high values mean tight binding
T1 sequence: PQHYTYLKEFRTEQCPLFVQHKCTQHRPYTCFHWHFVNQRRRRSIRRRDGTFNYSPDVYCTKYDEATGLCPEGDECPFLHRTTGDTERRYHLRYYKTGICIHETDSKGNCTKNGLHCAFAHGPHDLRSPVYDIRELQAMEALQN

Row | Binder | binding signal
1 | B1 | 0.697 enrichment R
2 | B2 | 3.05 enrichment R
3 | B3 | 1.17 enrichment R
4 | B4 | 1.14 enrichment R
5 | B5 | 0.605 enrichment R
6 | B6 | 1.01 enrichment R
7 | B7 | 1.18 enrichment R
8 | B8 | 1.68 enrichment R
9 | B9 | 1.25 enrichment R
10 | B10 | 0.774 enrichment R
11 | B11 | 0.91 enrichment R
12 | B12 | 1.49 enrichment R
13 | B13 | 1.35 enrichment R
14 | B14 | 1.81 enrichment R

Source: publication PMC12136788
